Reference: ChEMBL document CHEMBL4888484, “Replenishing the malaria drug discovery pipeline: Screening and hit evaluation of the MMV Hit Generation Library 1 (HGL1) against asexual blood stage Plasmodium falciparum ,using a nano luciferase reporter read-out” (2022)
Hit rate of the full screen: of about 150,000 compounds, about 540 (0.36%) showed an effect of 50% or more. This is one part of the list.

System: Plasmodium falciparum
Test: Primary screen in NF54 nanoGlo assay, in single point, at 2uM, 72h; a lower Z score goes with more inhibition
Assay type: functional, Erythrocyte
Details: timepoint 72 hour

SMILES	% Inhibition	Z score
Clc1cncnc1NC[C@@H]1CCCC[C@@H]1N1CCOCC1	-5%	0.75
CCOc1cc(N2CCOCC2)c(OCC)cc1NC(=O)c1cccc(S(=O)(=O)N2CCCc3ccccc32)c1	-5%	0.89
Cn1c(-c2ccccc2)nnc1N1CCCOCC1	-48%	5.64
Cc1nc(CC2CC2)oc1C(=O)N[C@@H](C)C1CCOCC1	-18%	2.26
O=C(COc1ccccc1F)Nc1nnc(-c2cc(Cl)sc2Cl)o1	0%	0
CCOCCC(=O)N1CCC[C@H](C(=O)OCC)C1	-10%	1.91
O=C(c1ccccc1)N1C[C@H]2CCCC(=O)N(Cc3cccc(F)c3)[C@H]2C1	2%	-0.33
CCN(Cc1ncc(C)o1)c1ccc(O)cc1	-34%	3.98
CCCc1ccc(C(=O)[C@H](C#N)C(=O)c2ccc(OC)nc2)cc1	-21%	1.94
CC12CN(Cc3ccccc3)CC1(C)CN(c1cnc(C#N)cn1)C2 (stereo not given)	-3%	0.63
CC(C)(C)[C@H]1CCCN(C(=O)CCS(C)(=O)=O)CC1	5%	-0.95
Cc1ccc(N(C)Cc2nc(C3CC3)no2)c(C)c1	6%	-0.75
Cc1[nH]c2c(F)cc(F)cc2c1CCNC(=O)CN1CC[C@H](N(C)C)C1	-14%	1.96
O=C(Nc1ccc2c(c1)OCCO2)N1CCC(O)CC1	31%	-0.65
O=C(Cc1n[nH]c(=O)c2ccccc12)NCc1ccc(Cn2cccn2)cc1	-4%	0.56
COC(C(=O)N(C)C1C2CCOC2C1(C)C)c1ccccc1 (stereo not given)	-1%	0.27
O=C(C1CCOCC1)N1CCCN(C2CCC2)CC1	-6%	1.01
CC1(C)CN(S(=O)(=O)C2CCC2)[C@H]1C1CC1	-2%	0.27
CCOc1cc(CN(C)C[C@H]2COCCO2)c(Cl)cc1OC	5%	-0.94
CN1CCC(Cc2nc(-c3ccon3)n(-c3ccc(F)cc3F)n2)CC1	15%	-2.52
C[C@H](NC(=O)CCc1ccc2c(c1)CCO2)c1nnc2ccccn12	8%	-1
C#CCN(C(=O)c1ccc2c(c1)CCC(=O)N2)c1nccs1	2%	-0.32
CCCc1cc(CNS(=O)(=O)N2CCC[C@@H]2COC)on1	3%	-0.5
Cc1cnc(C2CC2)n1[C@H]1CCN(C(=O)c2nccc3ccccc23)C1	-15%	1.87
O=C(c1ccc2n[nH]c(=O)n2c1)N1CC[C@H]1C1CCCC1	-10%	1.61
COc1cccc(C(=O)N2C[C@@H]3CC[C@H]2CN(Cc2c(C)noc2C)C3)c1	4%	-0.53
Cc1cc(N(C)C)nc(NC(=O)NCC2CCOCC2)n1	-1%	0.12
C#CCN1CCCCC1C(=O)NCC(C(C)C)N1CCN(C)CC1 (stereo not given)	-4%	0.49

SMILES	% Inhibition	Z score
O=C(NC1CC2CC2C1)c1ccnc2nn[nH]c12 (stereo not given)	2%	-0.32
C[C@@H](CNCc1ccnn1C)c1cccc(Cl)c1	-3%	0.59
COc1cccc(CCC(=O)N2CC(C)[S+]([O-])C(C)C2)c1F (stereo not given)	-11%	1.17
CCOc1cc2c(cc1CN1C[C@H](O)C[C@H]1C(=O)O)CCC2	-5%	0.65
CC[C@H](C)NC(N)=NCc1ccc(Cn2ccnc2)cc1	-3%	0.26
CC(=O)NCC(=O)NC1CCC(C)CC1 (stereo not given)	3%	-0.38
O=C1CN(C[C@H](O)C(F)(F)F)CCN1CC1CCCC1	-1%	0.14
O=C(NCC(F)(F)C1(O)CCCCC1)c1ccncc1	-4%	0.36
Cc1cncc(Br)c1NC(=O)COC[C@H]1CCCO1	-9%	1.22
COC1CCC2OCCN(CC(O)c3cccc(Cl)c3)C2C1 (stereo not given)	-4%	0.4
CC(C)c1nn(-c2ccccc2)c(N(C)C)c1CN(C[C@H]1CCCO1)C(=O)c1ccc(Cl)cc1	-7%	1.18
Cc1ccccc1-n1ncc2c1CC(C)(C)C[C@@H]2NS(=O)(=O)C1CC1	-14%	1.74
COc1ccc(Nc2ccc(NC(=O)CCc3cccnc3)cc2)cc1	-2%	0.36
Cn1ccc(CNC2CCC(c3cccc(F)c3)C2)n1 (stereo not given)	-5%	0.68
N#CCC(=O)N1CCC[C@@H](C(F)(F)F)[C@H]1C(F)(F)F	-2%	0.44
CCc1cc(N2CCC(N[C@@H](CC)c3ccncc3)CC2)nc(N(C)C)n1	-8%	1.05
Cc1ccccc1[C@]1(F)CCN(C(=O)Nc2c(C)noc2C(C)C)C1	-4%	0.48
Cc1nc2n(n1)CCN(C(=O)Nc1cccc(N(C)C(C)C)c1)C2	12%	-1.14
O=C(Nc1ccon1)c1nc(-c2cnccn2)no1	-6%	0.83
O=S1(=O)CCC(CN2CCOC(c3ccc(Br)cc3)C2)C1 (stereo not given)	-30%	3.47
Cc1cc(=O)n2nc(NCc3ccccc3)c(NC(=O)c3ccccc3)c2[nH]1	-25%	3.34
COCc1ccc(C(=O)N(Cc2cccc(OC)c2OC)C2CCCC2)o1	-10%	1.39
Cc1ccc(S(=O)(=O)c2c(NS(=O)(=O)c3ccc(F)cc3)n(C[C@H]3CCCO3)c3nc4ccccc4nc23)cc1	6%	-0.71
CC(=O)N(CCN1CCOCC1)[C@H]1CCN(S(=O)(=O)c2cc(F)ccc2C)C1	4%	-0.59
C[C@H](NCc1ccccc1OCC(=O)N1CCCCC1)c1nncn1C	3%	-0.41
CC(C)c1ccc(NC(=O)[C@@H](c2ccccc2)N(Cc2ccccc2)Cc2ccccc2)cc1	2%	-0.35
Cc1ccc(Cn2ncc3c(NC4CCCCC4)ncnc32)cc1	3%	-0.33
